From the supplement of paper PMC3334620
In all, about 33,000 sequences were measured (“E-score (-0.5 to 0.5)”: median about -0.035, highest 2% from about 0.34 on). The list shows a part of the results.

What follows are sequences tested against T1, Mot3 (UniProt P54785) (assay: PBM E-score (8-mer binding enrichment) (E-score (-0.5 to 0.5)); higher = stronger / more preferred TF binding; most listed sequences are background and not binding sites). Details: protein concentration: 200 nM; construct: GST-full length.
T1 sequence: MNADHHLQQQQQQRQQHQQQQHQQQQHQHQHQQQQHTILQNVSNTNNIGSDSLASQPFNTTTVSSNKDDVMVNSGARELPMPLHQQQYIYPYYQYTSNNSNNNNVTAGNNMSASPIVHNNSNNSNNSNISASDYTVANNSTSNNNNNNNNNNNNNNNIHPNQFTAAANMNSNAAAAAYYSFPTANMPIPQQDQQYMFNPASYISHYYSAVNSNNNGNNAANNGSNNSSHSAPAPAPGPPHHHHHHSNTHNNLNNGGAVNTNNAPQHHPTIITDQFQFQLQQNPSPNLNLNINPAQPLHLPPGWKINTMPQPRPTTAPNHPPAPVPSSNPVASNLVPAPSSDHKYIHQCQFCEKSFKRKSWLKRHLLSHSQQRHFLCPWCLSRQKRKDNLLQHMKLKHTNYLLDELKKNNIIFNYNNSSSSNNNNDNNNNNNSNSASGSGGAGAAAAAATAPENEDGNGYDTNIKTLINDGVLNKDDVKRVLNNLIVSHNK
Outline: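 PURExpress in vitro transcription/translation supplied GST-tagged yeast transcription factors, either full-length or DNA-binding domain. Applied at about 100-200 nM to universal all-10-mer Agilent arrays double-stranded by primer extension, the bound protein was detected with fluorescent anti-GST. E-scores, modified Wilcoxon-Mann-Whitney statistics, were given by the Universal PBM Analysis Suite to ungapped eight-base words pooled with their reverse complements after masliner normalisation.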

Sequence	PBM E-score
GAAAACAC	0.304
AGTTAATC	0.0344
AGTCAACG	-0.0454
ATGGAACG	0.0262
CTTAGTAC	0.0025
AGAGGTGA	-0.0527
ATCCAGAC	-0.173
GCACCAAA	0.111
ACAGTTAA	-0.0198
ACGCCCTA	-0.132
AGCCGTGA	0.0247
AGTTGCGG	-0.128
AAATGGAG	-0.0564
GGCCTTCA	-0.0452
CACGTATG	0.111
CGGAATCA	-0.161
CTCCCACA	-0.101
GCTTGTCA	0.0189
ACACGGGA	0.29
CAATTTGG	0.0437
AACCGACA	0.0529
CGTACCGC	-0.194
AACACTTC	0.0788
GCCCGGGA	-0.167
CCCCGCGC	-0.302

Sequence	PBM E-score
CTATGGGC	-0.211
ATCGGCAC	-0.0944
ACCACCCT	-0.208
TACTCCCA	0.179
CTGGTCAC	-0.0793
CAGGCTAC	0.233
CGCATATC	-0.0103
GCCCCAGA	-0.331
CATGATCG	0.0419
CCACACCC	-0.133
AAGTCTAC	-0.077
CCGCACTC	-0.37
ATAAATTC	0.112
AACAAGGT	0.223
AAGCATAT	-0.138
AACCTTCA	0.215
CAAAGCCC	-0.0136
AGGAGTTG	0.128
ACGTGGAC	0.0457
CGGCTAGA	-0.158
ACCGGACA	-0.0317
AATATACG	0.0747
CGTGTCGA	0.288
GCAATAAA	0.0136
AGCCTACC	-0.207

Sequence	PBM E-score
CAGGCAAC	0.489
CATAACTC	-0.0466
ACTTGTGC	-0.0402
CAAAGAGA	-0.161
AAAAGTCA	-0.0363
CGCTAAAG	-0.0919
AAGGTACA	0.394
AAATCCTC	-0.184
ATAACTCC	-0.175
TCGTTGAA	0.0427
CTTTACAC	0.415
GCTGGCCC	-0.247
AAGCGTCC	-0.142
CAGCAGAG	-0.293
AGATATGC	0.0227
CTATTTTC	-0.041
ATGACGGC	-0.362
CGAGGAAA	-0.044
CTGCACCC	-0.185
GCGCTGAC	-0.0458
CTAGGTAC	0.26
ACCGAGCT	0.0142
GGATGCCC	-0.258
CATATACA	0.26
ATATTCCA	0.0459

Sequence	PBM E-score
CATCCCAG	-0.0916
ATGGTCAA	0.0423
CATAGTGA	0.0256
CGCAGACA	-0.002
GGCATCAC	-0.0141
GGTATCAC	-0.248
AGCCTAGG	-0.235
ACCTTAAA	-0.092
AATTCGGT	-0.0054
AGGTTTTC	0.113
ACAGATAC	0.0685
GTACAGCA	0.0112
ATACACAT	0.3
CTGTATAC	0.156
GTCAGTCA	0.0634
GTCACCTA	-0.0234
ACGATTGC	0.268
ACTTAATC	-0.0144
CCTATACA	0.268
CACGGTGC	-0.0219
CCATCGCC	-0.161
ACGACCCG	-0.104
ACGGGGGA	-0.0161
ATAAAAAG	0.132
GGGAATAA	-0.209

Sequence	PBM E-score
AAAGCGAC	-0.0586
CCGCTATC	-0.313
CTCTGCAC	-0.2
AAAGCACT	-0.216
AATACGCC	0.0729
GGATTTGA	-0.11
CGTCCCCA	-0.252
CTGGTGAA	0.112
CTACGTAC	0.195
ACGGAACC	0.0959
GAATAATA	0.105
ACAAGGAT	0.207
GACGGTTA	-0.0411
ATCGGTCA	-0.298
CATTATCG	-0.0496
AGCTGAAG	-0.0742
AGCACCGC	-0.299
AACCATAA	0.0898
ACCGCACC	-0.21
TAGAAGCA	0.0947
AGGTGTTG	0.192
TCATTCAA	0.055
GTGTCGGA	-0.0038
GGAGTGAA	-0.113
CAGCCTTA	-0.128

Sequence	PBM E-score
AAGTGGAA	0.0185
CAATAATA	0.103
CCCAAACC	-0.142
ACTGGGCC	-0.13
AACGGTGC	0.154
CGAACCTC	-0.171
AGAGTCTA	-0.081
CGCACACG	-0.159
GGGACCTA	-0.263
GTCAAGAA	0.174
ATTGTGAC	-0.046
ATTTAAAA	0.039
GTACGCAA	0.218
GCAGTTTA	-0.0464
CTGAGGGA	-0.322
AATCAAGG	0.0589
CTAGCAGA	-0.217
CCCAAGTA	-0.0226
CCCGGCAC	-0.333
CAAGCGCG	-0.182
AGAAAGGG	0.0398
GGCTAATA	-0.151
ATCGAGAA	0.0657
AAGCAGTA	-0.163
CACCTAAA	0.088

Sequence	PBM E-score
CATGGTCA	0.0925
GCGTAGCC	0.0806
ACAAGCTG	0.0158
CGAGATCC	-0.301
AGGAGGTG	-0.053
CACACGCC	0.0576
CTAATTCC	-0.0244
AGGCGCAT	0.191
AGTCACGG	0.179
CGCTTTGC	-0.0483
GTCTTCTA	-0.0971
GACCCGAA	-0.128
CCTAAGGC	0.133
GATAGGCC	0.0586
GATTACCC	0.0191
CAAAATCG	-0.0102
ACGTCCCG	-0.117
ACCGCCAT	-0.159
CTTCGCCA	-0.0986
AAGCCCAC	-0.157
GCGAGACA	-0.0299
CAATCATC	-0.0597
AGTTCTGG	-0.282
CAATCATG	0.0726
ACCATGCA	-0.0491

Sequence	PBM E-score
GATTCGCA	-0.0493
CTGGCCGA	-0.335
GTACTGAA	-0.00155
ACAATGGC	0.00468
CGGATCCC	-0.381
AGACTTGC	-0.005
CTGGCAGC	-0.18
AGCATTTA	-0.102
ACGCGTCC	0.0149
AACGTGGC	0.0798
AGTATTAC	0.21
ACTCGGGA	-0.272
CGATCCGC	-0.148
GCGTGACC	-0.0907
GAATATTC	-0.0559
CACTAACG	-0.0319
CCTTCCTC	-0.124
GACCTGCC	-0.205
CGGTAAAA	0.0898
CAACCGGA	-0.0548
CAATCTAG	0.00579
AAGCCCAA	0.0352
CACAGAGA	0.0161
TGAGCTCA	0.129
AGACTGGA	-0.117

Sequence	PBM E-score
AATGTCCG	-0.141
CATCAACA	0.236
CACATGTG	0.194
AGAAATGG	-0.118
ATGATGTC	-0.013
ACTGAAAT	-0.0376
CCCTCAGG	-0.152
AGTTACTG	-0.102
CAGGAGTC	-0.238
CACAAGGC	0.2
CCTGGCTA	-0.184
ATAAGGCA	0.46
GAGCGTGA	0.0127
CTCGTGGA	-0.234
GGGAGCTA	-0.105
CGTACGCC	-0.0491
ATGAGTTG	-0.0577
ATGCGTGC	0.25
CTGTCACA	-0.0045
